Measured values taken from the supplement of paper PMC4604168 (melanoma cell lines).
This is one part of the list. Most values come without repeats; read them as rough.

Each compound was assayed on MeWo (assay: cell count relative to DMSO control; melanoma cells; higher = more viable cells). Details: library dose: low library concentration; 72 h.
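Note: cell number obtained by counting DAPI-stained nuclei in high-throughput microscope images with image analysis software, screen run in 1,536-well plates.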

Row | Compound | cell count [%]
1 | CO[C@H]1C[C@@H]2CC[C@@H](C)[C@@](O)(O2)C(=O)C(=O)N2CCCC[C@H]2C(=O)O[C@H]([C@H](C)C[C@@H]2CC[C@@H](OCCO)[C@H](OC)C2)CC(=O)[C@H](C)/C=C(\C)[C@@H](O)[C@@H](OC)C(=O)[C@H](C)C[C@H](C)/C=C/C=C/C=C/1C [everolimus] + Nc1cccc2c1CN(C1CCC(=O)NC1=O)C2=O [lenalidomide] (first compound 0.02 µM, partner dose 1 µM) | 71
2 | CO[C@H]1C[C@@H]2CC[C@@H](C)[C@@](O)(O2)C(=O)C(=O)N2CCCC[C@H]2C(=O)O[C@H]([C@H](C)C[C@@H]2CC[C@@H](OCCO)[C@H](OC)C2)CC(=O)[C@H](C)/C=C(\C)[C@@H](O)[C@@H](OC)C(=O)[C@H](C)C[C@H](C)/C=C/C=C/C=C/1C [everolimus] + CS(=O)(=O)CCNCc1ccc(-c2ccc3ncnc(Nc4ccc(OCc5cccc(F)c5)c(Cl)c4)c3c2)o1 [lapatinib] (first compound 0.02 µM, partner dose 0.8 µM) | 61.3
3 | CO[C@H]1C[C@@H]2CC[C@@H](C)[C@@](O)(O2)C(=O)C(=O)N2CCCC[C@H]2C(=O)O[C@H]([C@H](C)C[C@@H]2CC[C@@H](OCCO)[C@H](OC)C2)CC(=O)[C@H](C)/C=C(\C)[C@@H](O)[C@@H](OC)C(=O)[C@H](C)C[C@H](C)/C=C/C=C/C=C/1C [everolimus] + O=C(O)c1ccc2c(c1)nc(Nc1cccc(Cl)c1)c1ccncc12 [CX4945] (first compound 0.02 µM, partner dose 0.4 µM) | 69.3
4 | CO[C@H]1C[C@@H]2CC[C@@H](C)[C@@](O)(O2)C(=O)C(=O)N2CCCC[C@H]2C(=O)O[C@H]([C@H](C)C[C@@H]2CC[C@@H](OCCO)[C@H](OC)C2)CC(=O)[C@H](C)/C=C(\C)[C@@H](O)[C@@H](OC)C(=O)[C@H](C)C[C@H](C)/C=C/C=C/C=C/1C [everolimus] + Clc1ccc(Nc2nnc(Cc3ccncc3)c3ccccc23)cc1 [vatalanib] (first compound 0.02 µM, partner dose 2 µM) | 50.9
5 | CC(=O)c1c(C)c2cnc(Nc3ccc(N4CCNCC4)cn3)nc2n(C2CCCC2)c1=O [palbociclib] + COc1cc(Nc2ncc(F)c(Nc3ccc4c(n3)NC(=O)C(C)(C)O4)n2)cc(OC)c1OC [Tamatinib] (first compound 0.04 µM, partner dose 0.4 µM) | 65.8
6 | CO[C@H]1C[C@@H]2CC[C@@H](C)[C@@](O)(O2)C(=O)C(=O)N2CCCC[C@H]2C(=O)O[C@H]([C@H](C)C[C@@H]2CC[C@@H](OCCO)[C@H](OC)C2)CC(=O)[C@H](C)/C=C(\C)[C@@H](O)[C@@H](OC)C(=O)[C@H](C)C[C@H](C)/C=C/C=C/C=C/1C [everolimus] + CNC(=O)c1cc(Oc2ccc(NC(=O)Nc3ccc(Cl)c(C(F)(F)F)c3)cc2)ccn1 [sorafenib] (first compound 0.02 µM, partner dose 0.4 µM) | 76.4
7 | CO[C@H]1C[C@@H]2CC[C@@H](C)[C@@](O)(O2)C(=O)C(=O)N2CCCC[C@H]2C(=O)O[C@H]([C@H](C)C[C@@H]2CC[C@@H](OCCO)[C@H](OC)C2)CC(=O)[C@H](C)/C=C(\C)[C@@H](O)[C@@H](OC)C(=O)[C@H](C)C[C@H](C)/C=C/C=C/C=C/1C [everolimus] + Cn1nnc2c(C(N)=O)ncn2c1=O [temozolomide] (first compound 0.02 µM, partner dose 2 µM) | 65.2
8 | CO[C@H]1C[C@@H]2CC[C@@H](C)[C@@](O)(O2)C(=O)C(=O)N2CCCC[C@H]2C(=O)O[C@H]([C@H](C)C[C@@H]2CC[C@@H](OCCO)[C@H](OC)C2)CC(=O)[C@H](C)/C=C(\C)[C@@H](O)[C@@H](OC)C(=O)[C@H](C)C[C@H](C)/C=C/C=C/C=C/1C [everolimus] + Cc1ccc(NC(=O)c2cccc(N(C)C)c2)cc1NC(=O)c1ccc(O)cc1 [ZM336372] (first compound 0.02 µM, partner dose 2 µM) | 65.4
9 | CC(=O)c1c(C)c2cnc(Nc3ccc(N4CCNCC4)cn3)nc2n(C2CCCC2)c1=O [palbociclib] + COc1ccc(COc2ccc(Cc3cnc(N)nc3N)cc2OC)cc1 [GW2580] (first compound 0.04 µM, partner dose 1 µM) | 87.7
10 | CO[C@H]1C[C@@H]2CC[C@@H](C)[C@@](O)(O2)C(=O)C(=O)N2CCCC[C@H]2C(=O)O[C@H]([C@H](C)C[C@@H]2CC[C@@H](OCCO)[C@H](OC)C2)CC(=O)[C@H](C)/C=C(\C)[C@@H](O)[C@@H](OC)C(=O)[C@H](C)C[C@H](C)/C=C/C=C/C=C/1C [everolimus] + CCc1ccc(CCOc2ccc(CC3SC(=O)NC3=O)cc2)nc1 [pioglitazone] (first compound 0.02 µM, partner dose 2 µM) | 73.1
11 | Nc1ncn([C@H]2C[C@H](O)[C@@H](CO)O2)c(=O)n1 [decitabine] + COc1ccc(COc2ccc(Cc3cnc(N)nc3N)cc2OC)cc1 [GW2580] (first compound 0.1 µM, partner dose 1 µM) | 95.5
12 | Nc1nc(F)nc2c1ncn2[C@@H]1O[C@H](CO)[C@@H](O)[C@@H]1O [fludarabine] + O=S(=O)(c1ccccc1)N(CC(F)(F)F)c1ccc(C(O)(C(F)(F)F)C(F)(F)F)cc1 [T0901317] (first compound 0.2 µM, partner dose 1.4 µM) | 43.2
13 | Nc1ncn([C@H]2C[C@H](O)[C@@H](CO)O2)c(=O)n1 [decitabine] + O=C(O)C(=O)Nc1sc2c(c1C(=O)O)CCNC2 [TCS401] (first compound 0.1 µM, partner dose 1.66667 µM) | 103
14 | CO[C@H]1C[C@@H]2CC[C@@H](C)[C@@](O)(O2)C(=O)C(=O)N2CCCC[C@H]2C(=O)O[C@H]([C@H](C)C[C@@H]2CC[C@@H](OCCO)[C@H](OC)C2)CC(=O)[C@H](C)/C=C(\C)[C@@H](O)[C@@H](OC)C(=O)[C@H](C)C[C@H](C)/C=C/C=C/C=C/1C [everolimus] + OCc1c[nH]c2ccccc12 [Indole-3-carbinol] (first compound 0.02 µM, partner dose 0.8 µM) | 69.7
